{"source": "paper PMC4336329", "about": "(PLoS ONE, 2015)", "note": "The whole screen tested about 310,000 compounds, of which about 2,200 (0.71%) showed an effect of 50% or more. Effects have a minus sign here. Some of the results follow.", "data": [{"biological_target": "human ether-à-go-go-related gene (hERG) potassium channel (human, UniProt Q12809)", "sequence (Q12809 whole entry, looked up)": "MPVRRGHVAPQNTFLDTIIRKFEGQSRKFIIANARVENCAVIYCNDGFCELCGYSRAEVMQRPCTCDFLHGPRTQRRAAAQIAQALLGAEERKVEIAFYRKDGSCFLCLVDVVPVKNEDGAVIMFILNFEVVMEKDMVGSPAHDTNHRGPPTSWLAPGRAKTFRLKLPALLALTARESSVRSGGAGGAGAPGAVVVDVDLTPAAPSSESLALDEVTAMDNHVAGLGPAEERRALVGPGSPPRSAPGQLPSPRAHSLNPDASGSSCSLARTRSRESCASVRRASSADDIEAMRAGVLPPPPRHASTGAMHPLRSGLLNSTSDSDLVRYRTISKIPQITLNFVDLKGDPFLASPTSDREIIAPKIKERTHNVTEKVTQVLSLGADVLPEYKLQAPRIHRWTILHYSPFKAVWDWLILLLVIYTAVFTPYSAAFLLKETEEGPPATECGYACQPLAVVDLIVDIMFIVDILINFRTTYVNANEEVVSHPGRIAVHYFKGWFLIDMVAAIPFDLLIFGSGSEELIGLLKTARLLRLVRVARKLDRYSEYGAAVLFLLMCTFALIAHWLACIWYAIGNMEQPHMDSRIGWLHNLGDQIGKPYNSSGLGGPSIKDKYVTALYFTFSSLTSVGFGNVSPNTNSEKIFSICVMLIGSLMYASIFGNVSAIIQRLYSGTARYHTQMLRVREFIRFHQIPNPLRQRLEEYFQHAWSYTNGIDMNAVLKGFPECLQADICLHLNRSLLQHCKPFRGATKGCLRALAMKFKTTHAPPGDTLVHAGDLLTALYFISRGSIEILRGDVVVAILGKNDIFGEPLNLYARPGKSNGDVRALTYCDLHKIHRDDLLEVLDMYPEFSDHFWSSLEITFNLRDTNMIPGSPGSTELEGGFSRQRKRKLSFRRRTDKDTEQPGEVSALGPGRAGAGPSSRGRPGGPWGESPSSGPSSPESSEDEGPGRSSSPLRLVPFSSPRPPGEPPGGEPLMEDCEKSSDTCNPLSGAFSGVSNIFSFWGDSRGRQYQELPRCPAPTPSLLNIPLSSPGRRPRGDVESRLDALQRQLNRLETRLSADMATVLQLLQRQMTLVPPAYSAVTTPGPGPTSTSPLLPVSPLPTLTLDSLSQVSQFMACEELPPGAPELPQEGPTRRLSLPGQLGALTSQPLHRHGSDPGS", "test": "primary screen, population patch clamp on CHO cells stably expressing hERG", "units": {"hERG current change (%, negative = inhibition) at 1uM": "%"}, "values": [{"smiles": "Cc1cc(C(=O)Nc2nnc(C3CC3)s2)c(C)s1", "hERG current change (%, negative = inhibition) at 1uM": 19.3}, {"smiles": "COc1ccccc1C(=O)NCC(=O)OCC(=O)N(CC(C)C)c1c(N)n(Cc2ccccc2)c(=O)[nH]c1=O", "hERG current change (%, negative = inhibition) at 1uM": 1.5}, {"smiles": "OC(COc1ccc(Cl)cc1)CN1CCN(c2ccccn2)CC1", "note": "(stereo not drawn)", "hERG current change (%, negative = inhibition) at 1uM": -37.7}, {"smiles": "Cc1ccc(N(CCC(=O)N2CCOCC2)S(=O)(=O)c2ccccc2)cc1", "hERG current change (%, negative = inhibition) at 1uM": -1.88}, {"smiles": "Cc1cccc(C(=O)N2c3ccccc3C(=O)OC2c2ccc3c(c2)OCO3)c1", "note": "(stereo not drawn)", "hERG current change (%, negative = inhibition) at 1uM": 9.06}, {"smiles": "Br.Cc1ccccc1N=C/C=C1/C=C(c2ccccc2)OC(C)(C)O1", "hERG current change (%, negative = inhibition) at 1uM": 6.43}, {"smiles": "O=C(CCN1CCCCCC1)Nc1ccc2c(c1)OCCO2.O=C(O)C(=O)O", "hERG current change (%, negative = inhibition) at 1uM": -4.99}, {"smiles": "CCOc1cc(/C=C2/SC(=S)N(Cc3ccccc3)C2=O)ccc1O", "hERG current change (%, negative = inhibition) at 1uM": 11.3}, {"smiles": "Clc1ccc(SCCCCn2ccnc2)cc1", "hERG current change (%, negative = inhibition) at 1uM": -19}, {"smiles": "CN(C(=O)c1ccc(NC(=O)Cc2ccc(NC(=O)C3CCCN(C(=O)C4CCCC4)C3)cc2)cc1)C1CC1", "note": "(stereo not drawn)", "hERG current change (%, negative = inhibition) at 1uM": 13.3}, {"smiles": "O=C(NCCNC1CCC(c2ccccc2)CC1)c1ccc(F)cc1", "note": "(stereo not drawn)", "hERG current change (%, negative = inhibition) at 1uM": -11.5}, {"smiles": "COc1ccc2c(c1)CCC1C2=NN(/C(C)=C/C(C)=O)C1c1cccc(F)c1", "note": "(stereo not drawn)", "hERG current change (%, negative = inhibition) at 1uM": 14.1}, {"smiles": "CC(C)(C)NC(=O)NC(=O)CN1CCN(c2ccccc2O)CC1", "hERG current change (%, negative = inhibition) at 1uM": 14.9}, {"smiles": "Cc1c(C(=O)NN2CCN(C)CC2)cccc1[N+](=O)[O-]", "hERG current change (%, negative = inhibition) at 1uM": 8.23}, {"smiles": "C#CCn1cnc2c(oc3ccccc32)c1=O", "hERG current change (%, negative = inhibition) at 1uM": 18.1}, {"smiles": "Cc1cccc(NC(=O)CCc2ccccc2)c1", "hERG current change (%, negative = inhibition) at 1uM": 3}, {"smiles": "O=C(COC(=O)CSc1ccc2ccccc2c1)Nc1ccccc1OC(F)F", "hERG current change (%, negative = inhibition) at 1uM": 4.9}, {"smiles": "Cc1ccc(S(=O)(=O)N2CCCC(C(=O)NCCC(C)C)C2)cc1", "note": "(stereo not drawn)", "hERG current change (%, negative = inhibition) at 1uM": -9.45}, {"smiles": "COc1ccc(Cl)cc1NC(=O)CN(C)C(=O)c1cc(-c2ccncc2)nc2ccccc12", "hERG current change (%, negative = inhibition) at 1uM": 14}, {"smiles": "CCc1c(C)c2nncn2[nH]c1=O", "hERG current change (%, negative = inhibition) at 1uM": 4.98}, {"smiles": "FC(F)(F)Oc1ccc(-c2cn3cccnc3n2)cc1", "hERG current change (%, negative = inhibition) at 1uM": 14.8}, {"smiles": "CC(C)(C)NC(=O)c1ccc2c(c1)N(CC(=O)N1CCCC1)C(=O)C(C)(C)O2", "hERG current change (%, negative = inhibition) at 1uM": 12.1}, {"smiles": "COC(=O)c1cc(S(=O)(=O)N2CCN(c3ccccc3F)CC2)c[nH]1", "hERG current change (%, negative = inhibition) at 1uM": 9.94}, {"smiles": "Cc1coc(C)c1C(=O)CC1(O)C(=O)N(C)c2ccc(Cl)cc21", "note": "(stereo not drawn)", "hERG current change (%, negative = inhibition) at 1uM": 8.24}, {"smiles": "COc1ccc(CCNS(=O)(=O)c2cccc(C(=O)O)c2)cc1OC", "hERG current change (%, negative = inhibition) at 1uM": 9.7}, {"smiles": "CCCc1cc(=O)[nH]c(SCC(=O)c2c(C)[nH]c3ccccc23)n1", "hERG current change (%, negative = inhibition) at 1uM": 0.976}, {"smiles": "Cc1cn([C@@H](CCCCNC(=O)OC(C)(C)C)C(=O)NCCCCCCCCCCC(=O)N2CCN(C(=O)OC(C)(C)C)CC2)nn1", "hERG current change (%, negative = inhibition) at 1uM": 15.5}, {"smiles": "CCOC(=O)N1CCN(C(=O)c2ccc(N(Cc3ccc(Cl)cc3)S(C)(=O)=O)cc2)CC1", "hERG current change (%, negative = inhibition) at 1uM": 3.09}, {"smiles": "CN(C)/C=C(\\C#N)C(=O)Nc1ccccc1", "hERG current change (%, negative = inhibition) at 1uM": 12.6}, {"smiles": "COCCN(C(=O)c1ccc(OCC(C)C)cc1)c1c(N)n(Cc2ccccc2)c(=O)[nH]c1=O", "hERG current change (%, negative = inhibition) at 1uM": 20.5}, {"smiles": "Cc1ccc(CNS(=O)(=O)c2ccc3c(c2)C(C)(C)C(=O)N3C)cc1", "hERG current change (%, negative = inhibition) at 1uM": 7.06}, {"smiles": "CCC(=O)NCCCOc1ccccc1", "hERG current change (%, negative = inhibition) at 1uM": 12.3}, {"smiles": "COc1ccc(NC(=O)CSc2nnc(Cn3c(=O)sc4ccccc43)n2C)cc1OC", "hERG current change (%, negative = inhibition) at 1uM": 6.6}, {"smiles": "CCS(=O)(=O)N1N=C(c2cccs2)CC1c1cc2cc(C)ccc2nc1Cl", "note": "(stereo not drawn)", "hERG current change (%, negative = inhibition) at 1uM": 0.868}, {"smiles": "COc1ccc(OC)c(NC(=O)COc2ccc3c(c2)CCC3)c1", "hERG current change (%, negative = inhibition) at 1uM": 9.63}, {"smiles": "Cc1ccccc1Nc1nc(N)nc(COC(=O)C2CCCCC2)n1", "hERG current change (%, negative = inhibition) at 1uM": 7.57}, {"smiles": "CCCNC(=S)N1CCC(C(=O)c2ccc(Cl)cc2)CC1", "hERG current change (%, negative = inhibition) at 1uM": 0.396}, {"smiles": "CCn1c(=O)c(C(=O)Nc2ccc(C)cc2C)c(O)c2ccccc21", "hERG current change (%, negative = inhibition) at 1uM": 9.46}, {"smiles": "Cc1ccc(/C=N/NC(=O)NC23CC4CC(CC(C4)C2)C3)o1", "hERG current change (%, negative = inhibition) at 1uM": 11.7}, {"smiles": "CC(C)n1c(-c2ccco2)csc1=Nc1cccnc1", "hERG current change (%, negative = inhibition) at 1uM": 8.43}, {"smiles": "Cc1ccc(C)c(S(=O)(=O)Nc2cc3c4c(c2)CC(=O)N4CCC3)c1", "hERG current change (%, negative = inhibition) at 1uM": 0.497}, {"smiles": "CC(=O)c1c(C(C)=O)c(C)n(NC(=O)c2ccccc2O)c1C", "hERG current change (%, negative = inhibition) at 1uM": 3.31}, {"smiles": "Oc1ccc(-c2ccccc2)cc1CN1CCCCCC1", "hERG current change (%, negative = inhibition) at 1uM": 2.54}, {"smiles": "CCOc1c(CNCCN2CCOCC2)cccc1OC.Cl", "hERG current change (%, negative = inhibition) at 1uM": 1.27}, {"smiles": "O=C(COC(=O)c1ccccc1Br)NCCC1=CCCCC1", "hERG current change (%, negative = inhibition) at 1uM": 12.7}, {"smiles": "CC(=O)N1CCSc2ccc(S(=O)(=O)NCCc3ccc(Cl)cc3)cc21", "hERG current change (%, negative = inhibition) at 1uM": 19.7}, {"smiles": "C#CCNC(=O)C1=C[C@@H](c2ccccc2)C[C@@H](OCc2ccc(CO)cc2)O1", "hERG current change (%, negative = inhibition) at 1uM": 5.86}, {"smiles": "CCN(Cc1nc2ccccc2c(=O)[nH]1)Cc1cc(=O)oc2cc(C)c(C)cc12", "hERG current change (%, negative = inhibition) at 1uM": -25.2}, {"smiles": "Cc1nc2ccccc2c2oc(C(=O)NCCCN3CCCC(C)C3)cc12", "note": "(stereo not drawn)", "hERG current change (%, negative = inhibition) at 1uM": 3.47}, {"smiles": "CC(=O)c1cccc(OCC(O)CNCC2COc3ccccc3O2)c1.O=C(O)C(=O)O", "note": "(stereo not drawn)", "hERG current change (%, negative = inhibition) at 1uM": 5.96}, {"smiles": "COC(=O)c1ccccc1NC(=O)CC#N", "hERG current change (%, negative = inhibition) at 1uM": 7.85}, {"smiles": "COc1ccc(N2CCN(CCNC(=O)Nc3ccc(C)c(Cl)c3)CC2)cc1", "hERG current change (%, negative = inhibition) at 1uM": 12}, {"smiles": "Cc1cc(C)c(NC(=O)Cn2c(=O)n(Cc3ccco3)c(=O)c3ccccc32)c(C)c1", "hERG current change (%, negative = inhibition) at 1uM": 15}, {"smiles": "COc1ccc(/C=C/C(=O)Nc2cc(C)nn2-c2nc3ccccc3n2Cc2cccc([N+](=O)[O-])c2)cc1", "hERG current change (%, negative = inhibition) at 1uM": 7.2}, {"smiles": "COc1cc(C(=O)N2c3ccccc3CC2C)cc(OC)c1OC", "note": "(stereo not drawn)", "hERG current change (%, negative = inhibition) at 1uM": 12.8}, {"smiles": "COc1ccc(Nc2cc(C)c3cc([N+](=O)[O-])ccc3n2)cc1", "hERG current change (%, negative = inhibition) at 1uM": 9}, {"smiles": "Cc1nn(-c2ccccc2)c(C)c1[N+](=O)[O-]", "hERG current change (%, negative = inhibition) at 1uM": 0.921}]}]}
